Reference: the BET-seq Pho4 binding data (Le et al. 2018)
Some of the results follow. The energies were worked out here from pooled read counts, against the library average; single values are noisy.

Target: T1, Pho4 (S. cerevisiae) (UniProt P07270)
T1 sequence: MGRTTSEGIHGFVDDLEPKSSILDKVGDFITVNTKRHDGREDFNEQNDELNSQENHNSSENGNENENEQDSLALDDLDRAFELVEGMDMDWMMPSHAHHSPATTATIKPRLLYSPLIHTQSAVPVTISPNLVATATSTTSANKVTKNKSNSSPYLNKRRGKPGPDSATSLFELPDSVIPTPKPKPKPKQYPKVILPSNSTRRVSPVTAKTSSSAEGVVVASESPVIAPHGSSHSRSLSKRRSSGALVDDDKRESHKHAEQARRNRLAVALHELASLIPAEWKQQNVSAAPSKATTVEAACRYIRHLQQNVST
Assay: relative binding free energy (BET-seq); higher = weaker binding
Conditions: reference: library average

Sequence	relative binding free energy [kcal/mol]
CGTTCCACGTGGGGGA	-0.11
ATTTACACGTGGGGAG	0.06
AAGCGCACGTGGGGGA	-0.2
TGTCTCACGTGTTTAT	0.19
GTTTTCACGTGTGAGC	0.36
GGTTTCACGTGTCTCT	0.38
GTAGACACGTGTCATG	0.07
AATGACACGTGTGCGG	0.11
TGTAGCACGTGCGGTC	0
TAGAGCACGTGAATGT	0.18
GCGGGCACGTGGTATA	-0.02
TAGGTCACGTGCTAGT	0.16
TCGTGCACGTGTTTGT	-0.16
GTGCTCACGTGTGCTT	0.31
AGTTACACGTGGTTTG	0.03
TCCGGCACGTGTAGGT	0.06
TGCGGCACGTGTTTAT	-0.12
TCAGTCACGTGATAGG	0.21
TATGGCACGTGTAATG	0.06
AATGGCACGTGTGATT	0.01
GTTAACACGTGAACGT	0.45
ATTATCACGTGATTGA	0.21
TAGGGCACGTGTCTGA	-0.23

Sequence	relative binding free energy [kcal/mol]
TGGCTCACGTGTAATG	0.3
CAATTCACGTGTGGGT	0.33
TGGTGCACGTGAGGGT	0.19
TGGGTCACGTGAGGCT	0.42
TTAGACACGTGGGAGC	-0.05
GGTGCCACGTGTAAGA	0.1
TAGGCCACGTGATTGG	0.01
TGTACCACGTGGCTGT	-0.14
TTGGTCACGTGACGTT	0.2
ATGGGCACGTGCCGGG	-0.2
AGATTCACGTGCGAGT	0.31
TAGGGCACGTGTTTAT	-0.03
GGGTCCACGTGTTTTG	0.18
TGAGTCACGTGCTCTG	0.24
CATGGCACGTGTGATA	-0.07
ATTGGCACGTGTAGAG	-0.09
TTATGCACGTGAGTGC	0.11
GGGTTCACGTGAGAGC	0.29
AGTCGCACGTGAGGCA	0.22
GACTTCACGTGGCGGT	0.3
TTGTTCACGTGTCAAG	0.32
AGTGACACGTGTCGAG	0.03
AAGGGCACGTGTTGCA	-0.23

Sequence	relative binding free energy [kcal/mol]
CGATGCACGTGGTTGT	0.01
TGAATCACGTGTGTAT	0.13
TTTGTCACGTGCGTAA	0.02
TAAAACACGTGTGTAG	-0.06
GTAGTCACGTGCTAGG	0.02
GGGGGCACGTGGTGAC	-0.26
AATGTCACGTGACTGT	0.11
GAATGCACGTGTGCGT	0.05
TATAGCACGTGGTTTT	-0.06
GGCCGCACGTGGAGTG	0.02
GGTTTCACGTGCGAAT	0.29
GTTGGCACGTGGTCAT	-0.11
GTTTGCACGTGGTTCG	0.04
GGTTGCACGTGGCACT	0.01
TTCGACACGTGGTGTG	-0.13
GTGTACACGTGAGATA	0.32
GTAGGCACGTGCAGGG	-0.06
TTGTGCACGTGAATTC	0.35
CGAATCACGTGTTTGG	0.22
GTTTACACGTGCAGTT	0.19
TTACACACGTGTAGGG	0.03
GGCTGCACGTGTCATG	0.15
GTCAGCACGTGATTGG	0.16

Sequence	relative binding free energy [kcal/mol]
GTTTACACGTGTCATT	0.2
TATAACACGTGTCGTG	-0.14
ATTGGCACGTGGTCAG	-0.26
TCTTGCACGTGTGTAG	0.08
TGTTCCACGTGCGGCG	0.12
TGGAGCACGTGCTGAG	-0.2
TCAATCACGTGATGTT	0.17
GGGTGCACGTGATCTG	0.09
AAGTGCACGTGGCGGG	-0.06
GTTTTCACGTGGATTC	0.32
TGTGACACGTGTGATA	0.18
ATTATCACGTGCGTTT	0.08
GGTATCACGTGTTATG	0.25
ATTGACACGTGTTGAA	-0.02
TTCTGCACGTGGTATT	-0.09
CGCGGCACGTGGTGGA	-0.12
GAATCCACGTGGGGTT	0.07
AGTTTCACGTGCATGG	0.28
TGGGACACGTGAGAAT	0.24
GGATTCACGTGATGTT	0.48
ATGAACACGTGAGAGT	0.26
GGTCTCACGTGACAGG	0.42
GACGGCACGTGAGTGG	0.27

Sequence	relative binding free energy [kcal/mol]
TTGGACACGTGTCTGG	0.06
TGTTGCACGTGCATAA	-0.05
ATAGACACGTGCGGGT	-0.03
TGAGACACGTGGGTGG	-0.15
TTGGCCACGTGTATGA	0.06
GGGCGCACGTGCTGTG	-0.16
TGGTCCACGTGCTAGG	-0.01
ATTGGCACGTGTTTCT	-0.11
ACTATCACGTGTTGTT	0
CTTGGCACGTGCTTGG	-0.14
AGGAACACGTGGGTGC	0.09
CAGGTCACGTGAGGAT	0.25
ATCTTCACGTGTTTTT	0.26
TGGAACACGTGTTGAG	0.02
ATTAACACGTGCGTGG	-0.03
AGTACCACGTGGTGGT	-0.04
ATCGTCACGTGGCAGG	0.01
TTCAACACGTGTTGTG	-0.01
TATTGCACGTGGGGTC	-0.24
GTTGACACGTGCATGG	0.08
TTTGACACGTGAATAT	0.13
TTCTGCACGTGGAGAG	-0.01
AATGGCACGTGGCAGA	-0.17
